These results are taken from the supplement of paper PMC9446081.

About 220 (0.56%) of roughly 39,000 compounds showed activity. The list shows a part of the results.
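Note: static incubation at 37 °C against the wild-type strain, values averaged over two biological replicates.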

This experiment relates to Escherichia coli K-12 BW25113. In words: relative growth (OD600 normalised to plate interquartile mean) (fraction); higher = less growth inhibition, active = 0.2 or less. As to conditions: 50 µM; LB; incubation time: overnight (16-24 h).
As for `C[C@@H]1CCCCO[C@@H](CN(C)C(=O)Nc2ccccc2)[C@H](C)CN([C@H](C)CO)C(=O)c2cc(NC(=O)NC3CCCCC3)ccc2O1`, the relative growth was inactive: 1.03. Take `C[C@@H]1CCCCO[C@H](CN(C)C(=O)Nc2ccc3c(c2)OCO3)[C@H](C)CN([C@@H](C)CO)C(=O)c2cc(NS(=O)(=O)c3cccs3)ccc2O1`: the relative growth was inactive: 0.925. On to `C[C@@H]1CCCCO[C@H](CN(C)Cc2ccc3c(c2)OCO3)[C@H](C)CN([C@@H](C)CO)C(=O)c2cc(NC(=O)Nc3ccc(C(F)(F)F)cc3)ccc2O1`, for which the relative growth was inactive: 1.05. As for `Cc1noc(C)c1NC(=O)N(C)C[C@H]1Oc2ccc(NC(=O)C3CC3)cc2C(=O)N([C@H](C)CO)C[C@H]1C`, the relative growth was inactive: 0.96. The same measure for `C[C@@H]1CCCCO[C@@H](CN(C)C(=O)c2ccccc2)[C@@H](C)CN([C@H](C)CO)C(=O)c2cc(NC(=O)C3CCCCC3)ccc2O1`: inactive: 0.993. Under `C[C@@H]1CN([C@H](C)CO)C(=O)c2cc(C#Cc3cccnc3)cnc2O[C@@H]1CN(C)Cc1ccc(F)cc1` stands inactive: 0.982. The same measure for `CC(C)(C)[S@](=O)N1Cc2cc(C(=O)NCCc3ccncc3)nc(-c3cccc(-c4ccccc4)c3)c2[C@@H]1CCO`: inactive: 0.996; for `COCCNC(=O)C[C@H]1C[C@H]2c3cc(NC(=O)COC)ccc3O[C@H]2[C@H](CO)O1`: inactive: 0.984. Turning to `COc1ccc(S(=O)(=O)Nc2ccc3c(c2)C(=O)N([C@@H](C)CO)C[C@@H](C)[C@@H](CN(C)C(=O)c2ccccc2)OCCCC[C@@H](C)O3)cc1`, the relative growth was inactive: 1.01. The same measure for `CC(C)NC(=O)Nc1ccc2c(c1)C(=O)N([C@@H](C)CO)C[C@@H](C)[C@H](CN(C)C(=O)Nc1ccc(C(F)(F)F)cc1)OCCCC[C@H](C)O2`: inactive: 1.02; for `Cc1noc(C)c1S(=O)(=O)Nc1ccc2c(c1)C(=O)N([C@H](C)CO)C[C@@H](C)[C@H](CN(C)S(=O)(=O)c1cn(C)cn1)OCCCC[C@@H](C)O2`: inactive: 0.992. Under `C[C@@H]1CN([C@H](C)CO)C(=O)c2c(c3ccccc3n2C)-c2ccccc2CO[C@@H]1CN(C)C(=O)NC1CCCCC1` stands inactive: 1.02; under `C[C@@H]1CCCCO[C@@H](CN(C)C)[C@@H](C)CN([C@H](C)CO)C(=O)c2cc(NS(=O)(=O)c3cn(C)cn3)ccc2O1`, inactive: 1; under `NC[C@@H](CO)Cc1ccsc1`, inactive: 1.02. Consider `COc1cccc(C#Cc2ccc3c(c2)O[C@H](CN(C)C(C)=O)[C@H](C)CN([C@H](C)CO)S3(=O)=O)c1`, for which the relative growth is inactive: 1.03. Under `C[C@H]1CC[C@@H]2N(C1)C[C@@H]1[C@H]([C@@H](O)[C@H](O)[C@]3(O)[C@H]1C[C@@]14O[C@]5(O)[C@@H](C[C@@H](O)[C@@H]31)[C@]4(C)CC[C@@H]5O)[C@]2(C)O` stands inactive: 0.987; under `C[C@@H]1CCCCO[C@H](CN(C)Cc2ccc(C(=O)O)cc2)[C@H](C)CN([C@@H](C)CO)C(=O)c2cc(NC(=O)Nc3ccc(C(F)(F)F)cc3)ccc2O1`, inactive: 1.01; under `C[C@@H]1CN([C@@H](C)CO)C(=O)Cc2cc(NS(C)(=O)=O)ccc2O[C@H]1CN(C)Cc1ccc(C(=O)Nc2ccccc2N)cc1`, inactive: 1. Under `O=C(O)CNC(=O)c1ccc(S(=O)(=O)N2CCOCC2)cc1` stands inactive: 0.971. The same measure for `CC(=O)N[C@@H](CC(C)C)C(=O)O`: inactive: 0.912; for `N[C@@H](C(=O)N[C@@H]1C(=O)N2C(C(=O)O)=C(Cl)CC[C@H]12)c1ccccc1`: active: 0.0311; for `C[C@H]1CN([C@@H](C)CO)C(=O)Cc2cc(NS(=O)(=O)c3cccs3)ccc2O[C@@H]1CN(C)Cc1ccc(Oc2ccccc2)cc1`: inactive: 1. For `C[C@@H]1CCCCO[C@@H](CN(C)C(=O)Cc2ccccc2)[C@@H](C)CN([C@H](C)CO)C(=O)c2cc(NS(=O)(=O)c3cccs3)ccc2O1`, the relative growth was inactive: 1.01. Take `CCN(CC)CCC/N=C1/N=C(CC(=O)/C=C/c2ccc(O)c(OC)c2)C[C@@H](c2ccc(O)c(OC)c2)S1`: the relative growth was inactive: 1.01.

`CN(C)C(=O)c1cccc(-c2cccc(-c3nc(C(=O)NC4CCCCC4)cc4c3[C@@H](CCO)N([S@@](=O)C(C)(C)C)C4)c2)c1`: the relative growth was inactive: 1.04. Turning to `C[C@H](CO)N1C[C@H](C)[C@@H](CN(C)S(=O)(=O)c2ccc(F)cc2)OCCCC[C@H](C)Oc2ccc(NS(=O)(=O)c3cn(C)cn3)cc2C1=O`, the relative growth is inactive: 1.03. The same measure for `C[C@@H]1CCCCO[C@@H](CN(C)C(=O)Nc2cccc3ccccc23)[C@H](C)CN([C@H](C)CO)C(=O)c2cc(NS(=O)(=O)c3ccc(F)cc3)ccc2O1`: inactive: 1.04. The same measure for `Cc1noc(C)c1NC(=O)N(C)C[C@H]1Oc2ccc(NC(=O)NC(C)C)cc2C(=O)N([C@H](C)CO)C[C@@H]1C`: inactive: 0.973; for `C[C@H]1CN([C@@H](C)CO)C(=O)Cc2cc(NC(=O)Cn3cnnn3)ccc2O[C@@H]1CN(C)C(=O)Nc1ccc2c(c1)OCO2`: inactive: 0.959; for `C[C@H](CO)N1C[C@H](C)[C@@H](CN(C)S(=O)(=O)c2ccc(Oc3ccccc3)cc2)OCc2cn(nn2)CCCC1=O`: inactive: 1.01. As to `O=C(CN1CCOCC1)NCC[C@@H]1CC[C@@H](NC(=O)Cc2ccccn2)[C@@H](CO)O1`, the relative growth is inactive: 0.999.

Regarding `COc1ccc(S(=O)(=O)Nc2ccc3c(c2)C(=O)N([C@H](C)CO)C[C@H](C)[C@@H](CN(C)C(=O)Nc2ccc(F)cc2)OCCCC[C@H](C)O3)cc1`, the relative growth is inactive: 1.01. The same measure for `N=C(NO)NCC[C@H](N)C(=O)O`: inactive: 1.01; for `Cc1ccc(S(=O)(=O)Nc2cccc3c2O[C@H](CN(C)Cc2ccc(Oc4ccccc4)cc2)[C@H](C)CN([C@H](C)CO)C3=O)cc1`: inactive: 1.04; for `C[C@@H]1CN([C@H](C)CO)C(=O)c2cc(NS(=O)(=O)c3ccccc3)ccc2O[C@@H](C)CCCCO[C@H]1CN(C)C(=O)c1ccccc1`: inactive: 0.975.

`C[C@H](CO)N1C[C@H](C)[C@H](CN(C)C(=O)Nc2cccc3ccccc23)OCCCC[C@H](C)Oc2ccc(NC(=O)Nc3cccc4ccccc34)cc2C1=O`: the relative growth was inactive: 1.05.
